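Briefly, cells in 96-well plates were exposed to five compound concentrations for 48 h, and endpoints were estimated by linear interpolation. Here, GI50 denotes the concentration required for 50% inhibition of growth. The concentration for full growth arrest is given as TGI.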

This assay deals with NCI-H322M lung. Briefly: growth of human tumour cells (NCI), 48 h.
In the case of `CCC1(CC)SCc2nc3ccccc3n21`, the TGI is > 100 µM.

On to `Cc1c2cccnc2c(C)c2c1c1cc(CO)ccc1n2C`, for which the GI50 is 1.81 µM and the TGI came out at 13.5 µM.

As to `CCN(CC)c1c(N(CC)CC)c(=O)c1=O`, the TGI was found to be 62.6 µM. Consider `CN(c1ccc(Cl)cc1)S(=O)(=O)c1ccc([N+](=O)[O-])cc1`, for which the TGI was > 100 µM. For `CC1CC=CC(O)C1` (configuration not stated), the TGI was > 100 µM. As for `O=S(=O)(Nc1cc(F)cc(Cl)c1)c1ccc(-c2cnc(C3CC3)o2)cc1`, the GI50 was 7.98 µM and the TGI is 25.7 µM. For the compound `CC1OC(n2cc(F)c(=O)[nH]c2=O)C=CC1O` (configuration not stated), the TGI was > 100 µM. `COc1ccc(CC2c3cc(Oc4cc(CC5c6cc(OC)c(OC)cc6CCN5C)ccc4O)c(OC)cc3CCN2C)cc1` (configuration not stated) displayed a TGI of 14.3 µM. On the same count and under the same terms, under `CNC(=S)NC1CCCCC1NC(=S)NC` (configuration not stated) stands > 100 µM; under `O/N=C1/COC(C(F)(F)F)(C(F)(F)F)C1`, > 100 µM.

In the case of `NC(=NCCCOc1ccc(Cl)cc1)Nc1ccc(C(F)(F)F)cc1`, the GI50 was 3.17 µM and the TGI worked out at 12 µM. As to `CCOC(CCNCC(OCC)OCC)OCC`, the TGI was > 10 µM. Consider `CC(SC(C)C(=O)N/N=C/c1cccc(Cl)c1)C(=O)N/N=C\c1cccc(Cl)c1` (configuration not stated), for which the GI50 was 16.8 µM and the TGI is 63.3 µM. Regarding `CC(=O)OC1CCC2(C)C3CCC4(C)C(c5ccc(=O)oc5)CC5OC54C3CCC2(O)C1` (configuration not stated), the TGI came out at 4.71 µM. Consider `CNCCCn1cc(C2=C(c3cn(C)c4ccccc34)C(=O)NC2=O)c2ccccc21`, for which the GI50 is 5.09 µM and the TGI came to 16.5 µM. Turning to `S=C(c1c[nH]c2ccccc12)N1CCOCC1`, the TGI is > 100 µM. With `Cc1nnc(S(=O)(=O)c2ccc(N=Nc3c(N)nc(N)nc3N)cc2)s1`, the TGI is > 100 µM.

On to `S=C(NCc1ccccc1)c1nc[nH]c1C(=S)NCc1ccccc1`, for which the TGI was 21.6 µM. For `CC1=C(C#N)C(C#N)(C#N)C(NN(C)C)C1` (configuration not stated), the TGI is > 100 µM. As to `CNCCNc1c2c(c(NCCNC)c3c(CN(C)C)c[nH]c13)C(=O)c1ccccc1C2=O`, the GI50 was 1.29 µM and the TGI was 4.48 µM. For `COc1cc(C(=O)c2cc(C)c3[nH]c4ccc(Cl)cc4c3c2C)cc(OC)c1OC`, in that order: 0.0648 µM and 23.4 µM.

As for `O=C(c1ccc(O)cc1)C1c2c3c(cc(O)c2C(c2ccc(O)cc2)C1c1cc(O)cc(O)c1)OC(c1ccc(O)cc1)C3c1cc2c(cc1O)OC(c1ccc(O)cc1)C2c1cc(O)cc(O)c1` (configuration not stated), the TGI is > 12.5 µM. For the compound `C[C@]12C=CC(=O)C=C1CC[C@H]1[C@@H]3C[C@@H](O)[C@](O)(C(=O)CO)[C@@]3(C)C[C@H](O)[C@@]12F`, the TGI was > 100 µM. Compound `CC1=Nc2ccccc2C1C(Cc1ccccc1N)c1c(C)[nH]c2ccccc12` (configuration not stated) displayed a TGI of 35.9 µM. Regarding `OCCN1CN(CCO)CN(c2nc(N3CN(CCO)CN(CCO)C3)nc(N3CN(CCO)CN(CCO)C3)n2)C1`, the GI50 is 0.00121 µg/mL and the TGI came out at 0.106 µg/mL. As for `NCCCNc1nc2ccccc2c2c(=O)c3cc(OC(F)(F)F)ccc3sc12`, the GI50 was 1.6 µM and the TGI was 2.96 µM. `Nc1nc(Cl)c(N)c(NC23CC4CC(CC(C4)C2)C3)n1` registered a TGI of 7.29 µM. Regarding `O=C(O/N=C1/CCCC/C1=C\c1ccccc1)c1ccccc1`, the TGI is > 100 µM. On the same count and under the same terms, next, `CCCCc1c(OC)cc(O)c2c1C(=O)c1[nH]c(C(=O)O)c(O)c(=O)c1C2=O`: > 100 µM.

As to `CC/C(=C(/c1ccc(OCCN(C)C)cc1)c1ccc(OC(=O)CCCCC(=O)c2c(C)[nH]c(/C=C3\N=C(c4ccc[nH]4)C=C3OC)c2C)cc1)c1ccccc1`, the GI50 is 13.6 µM and the TGI is 30.6 µM. As for `O=C(O)/C=N\Nc1nc2ccccc2[nH]1`, the TGI is > 100 µM. For `O=c1nc2occc2cn1C1CC(O)C(CO)O1` (configuration not stated), the TGI was > 100 µM. Turning to `COc1cc(/C=C2\CCC(C)C3C2=NN(C(C)=O)C3c2cc(OC)c(OC)c(OC)c2)cc(OC)c1OC` (configuration not stated), the TGI is > 100 µM. Take `NS(=O)(=O)c1nn2c(Br)c(-c3ccccc3)nc2s1`: the TGI was 11.6 µM. The compound `COc1ccc(/C=C(/C(=O)c2ccc(Cl)cc2)N2C=CC=CC2=C(C#N)C#N)cc1OC` registered a TGI of 42.2 µM. `CC(=O)Nc1ccc(C(=O)NN2C(=O)C(Cl)C2c2ccccc2)cc1` (configuration not stated): the TGI was > 100 µM. `CCc1nc(N)nc(N)c1-c1ccc2nn(-c3ccccc3)[n+]([O-])c2c1` had a TGI of 53.9 µM.

Take `CC1CC(N)=Nc2ccccc2N1` (configuration not stated): the TGI is > 100 µM. Regarding `CC(=O)n1nc(-c2ccccc2)n(/N=C/c2ccc([N+](=O)[O-])cc2)c1=O`, the TGI is > 100 µM. As to `Clc1ccc2c(NCCCNc3nccc(Nc4ccc(Br)cc4)n3)ccnc2c1`, the GI50 was 1.59 µM and the TGI came out at 3.13 µM.

With `COc1cc(Nc2cnc3cc(F)c(F)cc3n2)cc(OC)c1OC`, the TGI is > 100 µM. Turning to `Cc1ccc(SC(C)/C=C/NNC2=NC(c3ccccc3)C(c3ccccc3)=NN2)cc1` (configuration not stated), the TGI was > 100 µM. Consider `O=[N+]([O-])c1ccc(C=C2C(Cl)=C(Cl)C(Cl)=C2Cl)cc1`, for which the GI50 is 2.43 µM and the TGI is 8.51 µM.

As to `CCC(C)(C)/C(CC(O)(C(F)(F)F)C(F)(F)F)=N\O`, the TGI is > 100 µM.

As to `CC(=O)OCc1cc(CCC(=O)NCCNc2c3ccccc3nc3ccccc23)cc(COC(C)=O)c1O[Si](C)(C)C(C)(C)C`, the TGI is 28.9 µM.

Take `COC(=O)C1=C(C)N(NC(=O)c2ccccc2)C(C)(O)C12CCOC2=O` (configuration not stated): the TGI was > 100 µM. On to `COC(=O)/C=C/c1cc(O)c2oc(-c3ccc(O)c(O)c3)c(C(=O)OC)c2c1`, for which the GI50 is 10 µM and the TGI turned out to be 23 µM. With `C=C(F)C(=O)N1CCN(c2nc(OC[C@@H]3CCCN3C)nc3c2CCN(c2cccc4cccc(Cl)c24)C3)C[C@@H]1CC#N`, the GI50 was 1.73 µM and the TGI came to 5.86 µM. As to `CN(c1ccc(Cl)cc1)S(=O)(=O)c1cccc([N+](=O)[O-])c1`, the TGI was > 100 µM. The same measure, in the same setting: under `O=S(=O)(c1ccccc1)n1c2cc3cccnc3nc2c2cccnc21` stands > 100 µM; under `O=[n+]1c2c(n([O-])c3ccccc31)CCCCCCCCCC2`, > 100 µM. `COC(=O)c1cc2c3ccccc3n(C(C)=O)c2cn1`: the TGI was > 100 µM. With `O=Cc1ccc2c(c1)CC1(C2)Cc2ccc3c(c2C1)CCC3` (configuration not stated), the TGI amounted to 54.1 µM. As to `CCOC(=O)C1(Cc2ccc3c(c2)CCC3)Cc2cc3c(cc2C1)CCC3`, the TGI was > 100 µM.

For `O=[N+]([O-])c1cc2oc(COc3ccccc3)nc2cc1Cl`, the TGI was > 100 µM. Turning to `CN1C(=O)N/C(=C\c2ccc(S(=O)(=O)NN)cc2)C1=O`, the TGI is > 100 µM. Regarding `CCOC(=O)/C=C/C(C(=O)/C=C/c1ccc(OC2CCCCO2)c(OC)c1)=C(O)\C=C\c1ccc(OC2CCCCO2)c(OC)c1` (configuration not stated), the GI50 is 12.8 µM and the TGI was determined as 40.9 µM. The matching figures for `CCC[CH2][Ge]([CH2]CCC)([CH2]CCC)[O]C(=O)CC(=O)c1ccccc1`: 5.71 µM and 20.8 µM. `Cn1cc(C2=C(c3ccc4ccccc4c3)C(=O)NC2=O)c2ccccc21`: the GI50 was > 25 µM and the TGI is > 25 µM. Consider `CCOC(=O)C1=CC(C)(C(=O)OCC)Nc2c(nc(OC)n(C)c2=O)N1` (configuration not stated), for which the TGI is > 10 µM.

Turning to `O=C(/C=C/c1ccc(O)cc1)OC[C@@H](O)COC1OC(CO)C(O)C(O)C1O` (some centres not stated), the TGI is > 100 µM. With `O=C1CCCC/C(=C/c2ccccc2)N1`, the TGI was > 100 µM.

For `O=c1c2ccccc2[se]n1-c1cccnc1`, the TGI was > 100 µM.

Take `CC(C)c1ccc(Nc2ccc3c(OCCCN4CCN(C)CC4)cccc3n2)cc1`: the GI50 was 11 µM and the TGI came out at 23.6 µM. As to `CC(C)C1OC23CCCCC2C(C#N)(C#N)C1(C#N)C(=N)O3` (configuration not stated), the TGI was > 100 µM. With `C=C1C[C@@H]2O[C@H]3[C@H]4[C@@H](C[C@@H](C)[C@@H](OC(C)=O)[C@H]42)[C@@H](C)CO[C@@]3(C)[C@H](OC(C)=O)C[C@H]1O`, the TGI was > 100 µM. In the case of `CCOc1nc(-c2ccccc2)cc2c(O)c(-c3nnco3)[nH]c(=O)c12`, the GI50 was 5.37 µM and the TGI is > 100 µM.

With `N#CSC#Cc1ccc(C#CSC#N)cc1`, the TGI was > 100 µM. Regarding `O=C(O)c1nc(-c2ccccc2)ncc1-c1nnnn1-c1ccccc1`, the TGI was > 100 µM. For `O=C1NC(=Nc2ccccc2)S/C1=C\c1ccc2ncccc2c1`, the GI50 is > 25 µM and the TGI was > 25 µM. As to `O=C(c1ccccc1)c1cc(Cl)ccc1OCCCCN1CCN(CCCCOc2ccc(Cl)cc2C(=O)c2ccccc2)CC1`, the GI50 was 8.47 µM and the TGI was determined as 21.4 µM. Compound `Cc1ccc(S(=O)(=O)Oc2cc(-c3ccccc3)nc3ccccc23)cc1` displayed a TGI of 21.4 µM.

As for `C=C(C=O)[C@@H]1C2OC(=O)C(=C)[C@@H]2CC(O)[C@@]1(C)CC` (some centres not stated), the TGI is 53.5 µM. For `O=C1c2ccccc2C(=O)C1(Cl)C1(S(=O)(=O)O)c2ccccc2-c2ccccc21`, the TGI was > 100 µM. As for `COc1ccc(C(=O)Sc2c(-c3ccccc3)c(=O)n(-c3ccccc3)c(=S)n2-c2ccccc2)cc1`, the TGI was > 100 µM. For the compound `Cc1cc(C)c(S(=O)(=O)N2CCCN(S(=O)(=O)c3c(C)cc(C)cc3C)OCCCON(S(=O)(=O)c3c(C)cc(C)cc3C)CCCN(S(=O)(=O)c3c(C)cc(C)cc3C)OCCCO2)c(C)c1`, the TGI was > 100 µM. Turning to `C[C@]12CC[C@H](O)CC1=CC[C@@H]1[C@@H]2CC[C@]2(C)C(=O)[C@@H](N3CCOCC3)C[C@@H]12`, the TGI was > 100 µM. For the compound `O=C(Nc1ccc(OS(=O)(=O)c2ccccc2)cc1)C12CC3CC(CC(C3)C1)C2`, the GI50 was > 100 µM and the TGI is > 100 µM. Consider `C=CC1CC12C(=O)C1OC2(C)C2C(=O)c3cc4ccccc4cc3C(=O)C12` (configuration not stated), for which the GI50 was 38.1 µM and the TGI was > 100 µM. Take `O=[N+]([O-])c1ccc(Cl)c(C=NC23CC4CC(CC(C4)C2)C3)c1`: the TGI is > 10 µM. Turning to `COCCOc1cc(F)c2c(Nc3ccc(NC(=O)Cn4cc(C(C)C)nn4)cc3)ncnc2c1`, the GI50 was > 100 µM and the TGI was > 100 µM. Regarding `O=C(O)CNc1cc(-c2ccccc2)nc(NCC(=O)O)n1`, the TGI was > 100 µM.

In the case of `Nc1nc(N)c2[nH]c(CNc3ccc(C(=O)O)cc3)nc2n1`, the TGI was > 100 µM.
